The results in this text go back to article PMC9911399, “Two distinct binding modes provide the RNA-binding protein RbFox with extraordinary sequence specificity”.

Substitutions are numbered along the chain they refer to; changes in the protein carry UniProt numbers. The list shows a part of the results.

T1: RBFOX1 RRM RbFoxmut (Fox-RRM*) (Homo sapiens, UniProt Q9NWB1 109-208, R118D;E147R;N151S;E152T)
T1 sequence: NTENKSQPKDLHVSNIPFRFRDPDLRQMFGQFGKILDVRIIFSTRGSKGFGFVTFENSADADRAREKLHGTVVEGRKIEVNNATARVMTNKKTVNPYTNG

B1: AUUAUUC (DNA:RNA)
RNA: GGGAGACCGGAAUUCAGAUUGUCCAUUAUUCUUAAAUCCCGUCGUAGCCACCA
DNA 1: CAATCTGAATTCCGGTCTCCC
DNA 2: TGGTGGCTACGACGGGATT
B2: UAGUACA (DNA:RNA)
RNA: GGGAGACCGGAAUUCAGAUUGUCCUAGUACAUUAAAUCCCGUCGUAGCCACCA
DNA 1: CAATCTGAATTCCGGTCTCCC
DNA 2: TGGTGGCTACGACGGGATT
B3: CAUUGAA (DNA:RNA)
RNA: B2 RNA with U25C, G27U, A29G, C30A
DNA 1: CAATCTGAATTCCGGTCTCCC
DNA 2: TGGTGGCTACGACGGGATT
B4: AUACCAG (DNA:RNA)
RNA: B1 RNA with U27A, A28C, U29C, U30A, C31G
DNA 1: CAATCTGAATTCCGGTCTCCC
DNA 2: TGGTGGCTACGACGGGATT
B5: AAAUGUU (DNA:RNA)
RNA: B1 RNA with U26A, U27A, A28U, U29G, C31U
DNA 1: CAATCTGAATTCCGGTCTCCC
DNA 2: TGGTGGCTACGACGGGATT
B6: AACGAAC (DNA:RNA)
RNA: B1 RNA with U26A, U27C, A28G, U29A, U30A
DNA 1: CAATCTGAATTCCGGTCTCCC
DNA 2: TGGTGGCTACGACGGGATT
B7: GCCGACA (DNA:RNA)
RNA: B2 RNA with U25G, A26C, G27C, U28G
DNA 1: CAATCTGAATTCCGGTCTCCC
DNA 2: TGGTGGCTACGACGGGATT
B8: GGCCAAC (DNA:RNA)
RNA: B1 RNA with A25G, U26G, U27C, A28C, U29A, U30A
DNA 1: CAATCTGAATTCCGGTCTCCC
DNA 2: TGGTGGCTACGACGGGATT
B9: AUUGCCU (DNA:RNA)
RNA: B1 RNA with A28G, U29C, U30C, C31U
DNA 1: CAATCTGAATTCCGGTCTCCC
DNA 2: TGGTGGCTACGACGGGATT

The target in the experiment is T1, RBFOX1 RRM RbFoxmut (Fox-RRM*). The experiment can be described thus: EMSA; HiTS-Eq, 1 nM pool, 10 min; buffer printed only for the single-RNA assays: 10 mM Tris pH 7.5, 150 mM NaCl, 3.4 mM EDTA, 0.001% NP-40, 30 C. The conditions noted are these: tags: His6 N-terminal (pET28a); label: 5' 32P. In outline:
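Relative association constants, normalised to the cognate motif, were derived by comparing read counts of each RNA species with those of the control reaction. The RNA sequenced was the free fraction, separated by 8% native PAGE after a 10 min equilibration in 50 µL of 1 nM 5′-radiolabelled RNA (7 randomized nucleotides) with increasing concentrations of purified wild-type or mutant RbFox RRM.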
Background: In EMSA bound probe runs differently from free probe, usually more slowly.
With B1, the binding signal is 0.108 KA relative to UGCAUGU.

Consider B2, for which the binding signal was 0.073 KA relative to UGCAUGU.

As for B3, the binding signal was 0.141 KA relative to UGCAUGU. For B4 the value was 0.122 KA relative to UGCAUGU.

Regarding B5, the binding signal is 0.115 KA relative to UGCAUGU. Regarding B6, the binding signal is 0.0568 KA relative to UGCAUGU. For the molecule B7, the binding signal was 0.0398 KA relative to UGCAUGU. For the molecule B8, the binding signal was 0.0537 KA relative to UGCAUGU. Take B9: the binding signal was 0.108 KA relative to UGCAUGU.
